# Measured values as given in paper PMC6919601, “Identification of Plasmodium dipeptidyl aminopeptidase allosteric inhibitors by high throughput screening” (PLoS ONE, 2019).
# About 230 (0.21%) of roughly 110,000 compounds showed an effect of 50% or more. This is one part of the list.
# Target: DPAP1 (Plasmodium falciparum, UniProt Q8IIJ9)
# Test: primary screen, percent inhibition; read by cleavage of a fluorogenic dipeptide substrate; higher = more effect of the substance
# Parameters: species or system P. falciparum D10 trophozoite lysates; single well
# 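Note: 30 min substrate incubation versus DMSO and 10 µM JCP410 controls.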
# Sequence of DPAP1 (Q8IIJ9 whole entry, looked up): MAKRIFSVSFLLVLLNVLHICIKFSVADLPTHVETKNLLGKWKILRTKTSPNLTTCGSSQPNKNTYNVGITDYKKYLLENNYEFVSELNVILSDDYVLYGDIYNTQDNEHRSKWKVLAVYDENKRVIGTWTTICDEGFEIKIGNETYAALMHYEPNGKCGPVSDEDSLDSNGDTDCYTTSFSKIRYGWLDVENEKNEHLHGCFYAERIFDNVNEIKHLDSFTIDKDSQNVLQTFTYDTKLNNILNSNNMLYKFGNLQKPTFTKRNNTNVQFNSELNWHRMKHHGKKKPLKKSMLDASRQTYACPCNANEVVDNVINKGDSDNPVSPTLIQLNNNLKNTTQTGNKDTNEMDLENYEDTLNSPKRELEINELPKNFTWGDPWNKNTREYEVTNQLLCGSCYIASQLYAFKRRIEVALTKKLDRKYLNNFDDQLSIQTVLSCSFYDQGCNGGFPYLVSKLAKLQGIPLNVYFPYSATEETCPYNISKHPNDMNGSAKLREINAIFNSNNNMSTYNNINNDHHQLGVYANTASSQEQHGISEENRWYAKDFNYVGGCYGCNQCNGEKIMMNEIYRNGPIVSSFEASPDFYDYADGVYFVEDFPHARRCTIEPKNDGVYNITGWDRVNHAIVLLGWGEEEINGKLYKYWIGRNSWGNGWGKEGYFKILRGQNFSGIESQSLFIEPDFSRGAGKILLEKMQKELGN
row,SMILES,% Inhibition @ 10 uM
1,CCOC(=O)C1=C(C)N=c2s/c(=C\c3cccc4ccccc34)c(=O)n2C1c1ccc(C)cc1 (stereo not shown),1.27%
2,CC1=C(C(=O)NC(C)c2ccccc2)C2(CCC(C)CC2)OC1=O (stereo not shown),3.19%
3,Cc1ccccc1C(=O)Nc1ccc2nc(SCC(=O)NC3CC3)sc2c1,-6.34%
4,CCOC(=O)C1CCCCN1Cc1ccc(-c2ccccc2)cc1 (stereo not shown),1.55%
5,c1ccc(OCc2nn3c(Cn4cnc5ccccc54)nnc3s2)cc1,-0.45%
6,Cc1ccccc1-c1cccc(C(=O)N[C@@H](CC(C)C)C(=O)NCC#N)c1,-0.0207%
7,Cc1nn(-c2ccccc2)c2sc(C(=O)n3nnc4ccccc43)cc12,-3.74%
8,Cc1cc(NC=C2C(=O)CC(C)(C)CC2=O)no1,-4.41%
9,CCC(=O)Nc1ccc(N2CCOCC2)cc1,-7.39%
10,CC(C)CC(NC(=O)c1ccc(NC(=O)NCc2cccnc2)cc1)C(=O)NCC#N (stereo not shown),3.66%
11,CCCc1n(CC(O)COCC2CC=CCC2)c2ccccc2[n+]1C (stereo not shown),2.48%
12,CCCN(CCC)C(=O)CN1Cc2ccccc2C1=O,-0.234%
13,N#CCNC(=O)[C@@H]1CCCC[C@@H]1CS(=O)(=O)c1ccc(F)c(F)c1,-6.46%
14,CC(C)CC12CN3CCN(CC(C3)C1O)C2 (stereo not shown),-0.759%
15,Cc1ccccc1Oc1cc(-n2ncc(C#N)c2N)ncn1,-1.84%
16,CCCCCCOC(=O)C1=C(C)NC(=O)NC1c1ccc(Cl)cc1Cl (stereo not shown),4.35%
17,O=C(CSc1ncnc2[nH]cnc12)Nc1ccccc1C(F)(F)F,-9.28%
18,CCOCCCNC(=O)C1CCN(Cc2nc(-c3ccc(Cl)cc3)oc2C)CC1,-1.05%
19,c1ccc(-c2cc3c(nn2)CCc2nonc2-3)cc1,-3.82%
20,c1cc[n+](Cc2cccc3nc4ccccc4cc23)cc1,1.82%
21,CCn1c(COc2ccccc2C)nc2ccccc21,-6.4%
22,CCC(Oc1ccccc1)C(=O)NCCc1ccc(F)cc1 (stereo not shown),1.65%
23,CC(C)OCCCNC(=O)C1CCN(S(=O)(=O)N2CCCCC2)CC1,5.23%
24,Cc1nn(-c2ccccc2)c2nc(-c3ccco3)cc(C(F)(F)F)c12,1.72%
25,Cn1c(CCNC(=O)c2ccccc2)nc2ccccc21,-0.58%
26,COc1cc(C2c3[nH]c4ccccc4c3CCN2C(C)=O)cc2c1OCO2 (stereo not shown),1.38%

row,SMILES,% Inhibition @ 10 uM
1,COc1ccc2oc(=O)c(NC(=O)c3ccc(Br)cc3)cc2c1,5.91%
2,CCSc1nnc(NC(=O)c2nc(SC(C)C)ncc2Cl)s1,2.41%
3,Cc1ccc(S(=O)(=O)c2nnn3c2nc(NC(C)C)c2ccccc23)cc1,-3.08%
4,O=C(c1cc2c(s1)-c1ccccc1OC2)N1CCN(c2ncccn2)CC1,0.291%
5,CN1CCN(CCCNC(=O)c2cc3c(-c4ccccc4F)nn(C)c3s2)CC1,2%
6,Cc1[nH]c2ccccc2c1CCNC(=S)NCc1ccccc1,-3.94%
7,COc1cc2c(cc1OC)C(c1ccccc1C(F)(F)F)N(C(C)=O)CC2 (stereo not shown),-2.32%
8,CCOC(=O)c1c(C)[nH]c(C)c1S(=O)(=O)N1CCC(C(=O)N(C)C2CCCCC2)CC1,-7.86%
9,c1nc2c3c4c(sc3ncn2n1)CCCC4,8.58%
10,COc1ccccc1Oc1ccccc1OC,-11.9%
11,CCn1c2ccccc2c2cc(CN3CCN(c4ccccc4C)CC3)ccc21,-2.81%
12,Cn1ncc(Br)c1C(=O)NC1CCCCC1,-4.21%
13,O=C(C(NS(=O)(=O)c1cccc2nsnc12)c1ccccc1)N1CCN(c2ccccn2)CC1 (stereo not shown),-3.23%
14,CC/C(=N\O)c1ccc(CCCCCC(=O)O)s1,-0.0369%
15,C=CCn1c(SCC(=O)NCCO)nc2sc(C)c(C)c2c1=O,-2.53%
16,N#CC1=C2SCC(O)(c3ccc(F)cc3)N2C(=O)CC1c1cccc(O)c1 (stereo not shown),-0.0235%
17,CCOCCCNc1oc(/C=C/c2cccs2)nc1C#N,1.46%
18,O=C(NCCc1ccccc1)Nc1ccc(Cl)cc1,-0.414%
19,CCOC(=O)N1CCc2c(sc3c2C(=O)NC(c2cc(Br)ccc2O)N3)C1 (stereo not shown),-0.958%
20,CCOc1ccc(CC(=O)Nc2c(C(N)=O)oc3ccccc23)cc1OCC,-13.5%
21,N#CCNC(=O)[C@H](CSCc1ccc(C(F)(F)F)cc1)NC(=O)c1ccccc1,1.35%
22,CC(C)SCCCOc1ccccc1[N+](=O)[O-],-0.414%
23,CCCOc1ccc(N2C(=O)CC(N3CCN(Cc4ccc5c(c4)OCO5)CC3)C2=O)cc1 (stereo not shown),2.44%
24,CC(=O)OC1CCC2(C)C(=CCC3C2CCC2(C)C3CC3CC=CCC32C(C)=O)C1 (stereo not shown),5.69%
25,O=C(Nc1ccc2c3c(cccc13)CC2)c1cccnc1Cl,-0.0619%
26,Clc1ccc(CN2CCN(Cc3ccccc3)CC2)cc1Cl,-0.0404%

row,SMILES,% Inhibition @ 10 uM
1,Cc1ccccc1OC(C)C(=O)Nc1cccc(C)c1C (stereo not shown),2.48%
2,COCCCN1C(=O)C(O)=C(C(=O)c2ccc3c(c2)CC(C)O3)C1c1ccccc1 (stereo not shown),-4.06%
3,COc1ccc(-c2c(C#N)c(N)nc3c2c(=O)n(C)c(=O)n3C)cc1O,-1.8%
4,Cc1ccc(Cn2cnc3ccccc32)cc1C,-0.413%
5,Cc1ccc2oc(-c3ccc(C(C)C)cc3)c(O)c(=O)c2c1,0.0539%
6,CCN1CCCC1CNc1nc2ccc(C(=O)c3ccccc3)cc2n2cnnc12 (stereo not shown),-3.61%
7,CCOc1ccccc1CNCc1c(C(=O)O)c(C)n(Cc2ccccc2C)c1C,-0.23%
8,COc1cc(CNC(C)(C)C)ccc1OCC(=O)NC(C)(C)C,0.605%
9,O=C(NC1CCCCC1)N1CC=CCC1,1.29%
10,CNC(=O)C1c2ccccc2-c2ccccc2CS1(=O)=O (stereo not shown),-14.4%
11,Cc1ccc(/N=C2/C=C(O)CC(C)(C)C2)c(N)c1,0.673%
12,Cc1ccc(CNC(=O)c2ccc(Cl)cc2)c(S)n1,2.48%
13,c1c2c(cc3c1OCCO3)C1CN(C2)Cc2cc3c(cc21)OCCO3,-4.52%
14,N#Cc1c(NC(=O)c2cccs2)sc2c1CCCCC2,2.36%
15,CC(C)N1C(=O)S/C(=C/c2ccccc2Cl)C1=O,3.5%
16,CC(=O)N1c2ccccc2CCc2ccc(N)cc21,6.7%
17,CC(C)(C)C1CCc2c(sc(NC(=O)c3ccco3)c2C(=O)N2CCCC2)C1 (stereo not shown),2.45%
18,Cc1ccc[n+](CC(=O)Nc2nc3ccccc3s2)c1,5.31%
19,COc1cc(CNCCc2c[nH]c3ccccc23)cc(OC)c1O,-1.6%
20,Cc1ccc(N(CC(=O)N2CCN(C(c3ccccc3)c3ccccc3)CC2)S(C)(=O)=O)cc1,2.33%
21,O=C(Cc1ccccc1)Nc1cc(C(=O)O)c(NC(=O)Cc2ccccc2)cc1C(=O)O,20%
22,O=C(Nc1cccc(NC(=O)c2ccccc2Cl)c1)c1ccc(F)cc1,-3.75%
23,COc1cc(-c2nc3n(n2)C(c2ccccc2)C2=C(O)CC(C)(C)CC2=N3)cc(OC)c1OC (stereo not shown),1.96%
24,CCO/C(O)=C1\C(C)=NC2=C(C(=O)CCC2)C1c1ccc2c(c1)OCO2 (stereo not shown),-1.75%
25,CCC1CCc2c(sc(NC(=O)c3c(-c4ccccc4)noc3C)c2C(N)=O)C1 (stereo not shown),4.84%
26,NCC(c1ccccc1)(c1ccccc1)c1ccccc1,0.343%

row,SMILES,% Inhibition @ 10 uM
1,Cc1ccc2cc3cc(C(=O)NCCC4=CCCCC4)oc3nc2c1,-9.18%
2,CCCC1=C(C(=O)OCC)C(c2ccccc2F)C(C#N)=C(N)O1 (stereo not shown),6.18%
3,Cc1c(CCC(=O)O)c(=O)oc2cc3oc4c(c3cc12)CCCC4,8.12%
4,COc1ccc(CCNS(=O)(=O)c2c(C)nc(O)nc2O)cc1OC,5.85%
5,COC(=O)c1ccc(/C=c2\sc3nc(-c4ccccc4OC)nn3c2=O)cc1,0.561%
6,CC1CCN(C(=O)C2CCN(S(=O)(=O)N3CCC4(CC3)OCCO4)CC2)CC1,-1.21%
7,N#CCNC(=O)C(CCSc1ccccn1)NC(=O)c1ccccc1 (stereo not shown),-0.214%
8,Cc1ccc(S(=O)(=O)N(CC(=O)N2CCOCC2)c2cc(Cl)cc(Cl)c2)cc1,-3.49%
9,CCN1CCCC1CNC(=O)c1ccc(-n2c(C)cc3c2CCCC3)cc1 (stereo not shown),-7.95%
10,COc1ccc(C2=NN(CC(=O)NC(C)c3ccccc3)C(=O)CC2)cc1 (stereo not shown),-9.6%
11,Nc1nc2ccc(C3CCCCC3)cc2s1,5.03%
12,O=C(CN1C(=O)c2ccccc2S1(=O)=O)Nc1ccccc1Br,-2.27%
13,CC(=O)c1c(C)nn(-c2ccccc2)c1C,-4.6%
14,COC(=O)c1ccc(/C=C2\SC(=O)N(CC(=O)N3CCOCC3)C2=O)cc1,1.52%
15,CN(c1ccccc1)S(=O)(=O)c1cccc(C(=O)O)c1,-3.23%
16,NC(=O)NC(Cc1ccccc1)c1ccccc1 (stereo not shown),-3.32%
17,CCOC(=O)c1sc(NC(=O)c2cc(-c3ccc(O)cc3)on2)c(C(=O)OCC)c1C,-1.96%
18,CCN(CC)S(=O)(=O)c1ccc([N+](=O)[O-])cc1,-1.8%
19,O=C(O)C1C2C=CC(C2)C1C(=O)N1CCN(Cc2ccccc2)CC1 (stereo not shown),2.49%
20,CC1CC(O)CCN1C(C)c1ccccc1 (stereo not shown),-2.32%
21,O=C(O)C(c1ccccc1)C(c1ccccc1)c1ccccc1 (stereo not shown),0.518%
22,COc1ccc(CC(=N)NOC(=O)c2cccs2)cc1,-3.06%
23,CNC(=O)c1ccc(-n2nc(C)cc2-c2ccccc2)cc1,3.66%
24,CS(=O)(=O)N(CC(=O)Nc1ccccc1Cl)c1cc(Cl)cc(Cl)c1,-4.71%
25,CN(Cc1ccc(F)cc1F)CC(O)c1ccccc1 (stereo not shown),-4.95%
